Experimental data from the supplement of paper PMC6206098.
± gives the uncertainty stated by the source. The sequences are guide strands of siRNAs; only the seed at positions 2 to 7 varies.

Tests used:
3LL = assay: cell viability relative to siNT1 control; higher = less toxic; conditions: concentration: 10 nM; 96 h; Mus musculus;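 note: Luminescence-based viability of cells reverse transfected in 384-well plates with lipid-complexed siRNAs built on a non-toxic 19mer backbone whose passenger strand carries 2′-O-methyl groups at positions 1 and 2, triplicates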
HeyA8 = assay: cell viability relative to lipid-only control; HeyA8 human ovarian and H460 human lung cancer; M565 mouse liver and 3LL mouse lung cancer; siNT1 is a non-toxic control siRNA; higher = less toxic; conditions: concentration: 10 nM; 96 h; Homo sapiens
H460 = assay: as above; conditions: concentration: 10 nM; 96 h; Homo sapiens
M565 = assay: as above; conditions: concentration: 10 nM; 96 h; Mus musculus
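Throughout, for cell viability relative to lipid-only control: reverse lipid transfection in 384-well plates, in triplicate, of duplexes on a non-toxic 19mer backbone with passenger strand 2′-O-methylated at positions 1 and 2, luminescence viability read-out.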

Sequence | cell viability (3LL) [%] | cell viability (HeyA8) [%] | cell viability (H460) [%] | cell viability (M565) [%]
UGAGGGUACAUGUAAACCAAA | 38.5 ± 3.9 | 2.74 ± 0.078 | 23.7 ± 0.44 | 7.43 ± 2.1
UUCGGGGACAUGUAAACCAAA | 81.2 ± 7.6 | 65.6 ± 7 | 19.5 ± 1.2 | 133 ± 24
UGUAAUGACAUGUAAACCAAA | 80.8 ± 3 | 78.3 ± 7.2 | 75.2 ± 5.7 | 71.6 ± 22
UCUAGGUACAUGUAAACCAAA | 82.6 ± 12 | 73.1 ± 2.5 | 40 ± 2.9 | 48.7 ± 11
UCAAGCAACAUGUAAACCAAA | 90.9 ± 19 | 82.4 ± 1.3 | 72.3 ± 16 | 42.1 ± 6.6
UGUAGCUACAUGUAAACCAAA | 8.99 ± 4 | 8.44 ± 0.62 | 20.7 ± 2.4 | 7.51 ± 1.2
UGGGCGGACAUGUAAACCAAA | 10.6 ± 0.93 | 1.62 ± 0.04 | 7.67 ± 0.62 | 18.1 ± 4.8
UUUAGUAACAUGUAAACCAAA | 106 ± 11 | 99.8 ± 3.1 | 86.5 ± 15 | 101 ± 14
UUUUCCGACAUGUAAACCAAA | 89.4 ± 1.8 | 90.6 ± 3.2 | 90.2 ± 8.6 | 89.4 ± 9.3
UGAACCAACAUGUAAACCAAA | 98.6 ± 19 | 83 ± 4 | 71 ± 10 | 58.4 ± 17
UGCAAGAACAUGUAAACCAAA | 55.9 ± 9.3 | 90.4 ± 6.3 | 77 ± 11 | 52.3 ± 2.9
UCGUUAUACAUGUAAACCAAA | 87.2 ± 12 | 77.4 ± 9.3 | 85.1 ± 11 | 66.8 ± 3.7
UCUUUCGACAUGUAAACCAAA | 97.1 ± 14 | 90.2 ± 12 | 60.7 ± 2 | 79.6 ± 12
UUUCACUACAUGUAAACCAAA | 74.1 ± 6.8 | 82.7 ± 3.3 | 29.4 ± 5.5 | 86.5 ± 7.7
UAGAUGGACAUGUAAACCAAA | 63.6 ± 4.1 | 52.5 ± 13 | 56.3 ± 7.6 | 81.8 ± 5.5
UACAACAACAUGUAAACCAAA | 91 ± 14 | 80.3 ± 4.1 | 92.3 ± 12 | 85.2 ± 21
UAGCGUAACAUGUAAACCAAA | 86.9 ± 17 | 77.7 ± 12 | 63.8 ± 3.3 | 66.2 ± 8
UUACACGACAUGUAAACCAAA | 22.3 ± 0.66 | 97.6 ± 4.1 | 65.3 ± 7.9 | 74.5 ± 7.1
UACUCUUACAUGUAAACCAAA | 83.7 ± 3.7 | 80.5 ± 6 | 88.7 ± 12 | 58.6 ± 3.4
UCAACACACAUGUAAACCAAA | 85.7 ± 15 | 75.7 ± 5.8 | 53.3 ± 2.9 | 74.9 ± 6.5
UCCUGGUACAUGUAAACCAAA | 61.4 ± 17 | 27.3 ± 3.9 | 66.8 ± 6.1 | 28.8 ± 2.3
UGAGCUAACAUGUAAACCAAA | 82.2 ± 17 | 96.7 ± 8.9 | 66.1 ± 1.5 | 31.3 ± 4.7
UUUCUCAACAUGUAAACCAAA | 103 ± 9.5 | 96.6 ± 1.9 | 43.1 ± 2.9 | 75.1 ± 13
UAUCGCAACAUGUAAACCAAA | 117 ± 11 | 101 ± 3.2 | 91.9 ± 6 | 102 ± 20
UUAUACUACAUGUAAACCAAA | 36.8 ± 2.1 | 48.6 ± 4.4 | 33.5 ± 4 | 61.9 ± 7.4
UAGAAUGACAUGUAAACCAAA | 82.7 ± 8.2 | 89.1 ± 12 | 94.6 ± 9.2 | 64.3 ± 4.7
UUAUCACACAUGUAAACCAAA | 61.8 ± 10 | 79.5 ± 4.9 | 58.8 ± 4.1 | 108 ± 16
UUCUCCUACAUGUAAACCAAA | 24 ± 4.4 | 52.3 ± 3.1 | 45.9 ± 7.1 | 41.9 ± 7.5
UAAGCUGACAUGUAAACCAAA | 84.1 ± 1.9 | 94.9 ± 14 | 68.6 ± 8.3 | 56.3 ± 6.7
UAUUGGAACAUGUAAACCAAA | 99.5 ± 16 | 21.2 ± 5.6 | 24.7 ± 4.1 | 107 ± 27
